Measurements reported in PubChem BioAssay AID1346428 (National Center for Advancing Translational Sciences (NCATS), 2018).
Among all 48,000 compounds or so, about 1,200 (2.5%) were called active. About 2% were inconclusive and are not listed.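 Rule for the calls: active = activation of at least 60% and not above a set upper limit (about 1 call in 100 departs from these limits); inconclusive = activation of 40% to 60%, or above that upper limit; inactive = activation under 40%.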 The list shows a part of the results.

Molecular target: Probable G-protein coupled receptor 32 (Homo sapiens) (UniProt O75388)
Chain of UniProt O75388 (O75388 whole entry, looked up): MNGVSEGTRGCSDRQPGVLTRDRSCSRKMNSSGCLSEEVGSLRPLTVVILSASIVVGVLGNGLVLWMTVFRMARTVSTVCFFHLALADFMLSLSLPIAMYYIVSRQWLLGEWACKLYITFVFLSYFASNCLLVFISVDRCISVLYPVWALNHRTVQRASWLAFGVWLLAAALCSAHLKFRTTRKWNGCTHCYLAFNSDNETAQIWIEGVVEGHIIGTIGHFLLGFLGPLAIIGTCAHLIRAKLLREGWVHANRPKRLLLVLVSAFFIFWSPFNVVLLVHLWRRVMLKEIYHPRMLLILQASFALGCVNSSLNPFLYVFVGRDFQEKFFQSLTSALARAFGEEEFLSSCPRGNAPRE
Assay: qHTS for Agonists of Human Resolvin D1 Receptor DRV1; note: 0% is about no effect
Settings: CHO-K1 GPR32 beta-arrestin PathHunter luminescence, 90 min; at 76.9 µM; stronger effect = higher value; zero percent set by DMSO-only wells
How it was run: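 PathHunter beta-arrestin recruitment in CHO-K1 cells stably expressing ProLink-tagged GPR32. Cells were exposed to compound for 90 min at 37 C, then chemiluminescence was read after 1 h detection at ambient temperature; DMSO served as basal control.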

activation, inactive:
CCCc1nnc(NC(=O)Nc2ccccc2Cl)s1 -16.7%
Cc1nn(C(=O)c2c(F)cccc2F)c(C)c1S(=O)(=O)N1CCCCCC1 14.9%
CCn1c(CN2CCOCC2)nc2cc(NC(=O)c3cccc([N+](=O)[O-])c3)ccc21 -12.6%
Cn1c(=O)c2c(-c3ccccc3)n(CCCO)cc2n(C)c1=O -7.27%
COc1ccc(NC(=O)Cn2cc(C(=O)c3ccccc3OC)c(=O)c3ccc(C)nc32)cc1OC 2.27%
Cc1ccc(CN2CCC(CNC(=O)Nc3ccc(C)c(C)c3)C2)cc1 (stereo not given) -16.9%
CC(=O)Nc1nnc2n1CCS2 -6.81%
COc1ccc(C)cc1NC(=O)c1nnn(-c2c(C)cccc2C)c1C -6.24%
CCOC(=O)c1ccc(N2CCN(c3cc(C)ccc3C)CC2)c(NC(=O)Nc2ccc(Cl)cc2)c1 -13.9%
Cc1ccc(C)c(NC(=O)/C(C#N)=C/c2ccc(C(C)C)cc2)c1 20.6%
COc1ccc(C)cc1NC(=O)c1oc2ccc(S(=O)(=O)N3CCC4(CC3)OCCO4)cc2c1C -14.9%
CC(N)C12CC3CC(CC(C3)C1)C2 (stereo not given) 13.4%
CCOc1ccc(C2C(C(=O)Nc3ccccc3C)=C(C)Nc3nnnn32)cc1 (stereo not given) 28%
CC(C)N(C(=O)Cn1cc(SCC(=O)Nc2ccccc2C(F)(F)F)c2ccccc21)C(C)C -13.2%
CCCCc1ccc2nc(NC(=O)OC)[nH]c2c1 14.7%
COc1ccc(-c2nc(SCCOc3ccccc3Cl)n3[nH]c(=O)cc3n2)cc1 24.3%
Cc1cc(C(=O)NCc2ccccc2Cl)c2c(C)nn(-c3ccccc3)c2n1 -14.1%
COc1cc(NC(=O)CSc2ncccc2C(=O)OC(C)C)cc(OC)c1 -0.309%
COc1ccc(CCNC(=O)CS(=O)Cc2nc(-c3ccccc3F)oc2C)cc1OC (stereo not given) 4.45%
CCN1C(C(=O)c2ccccc2)=C(OC(=O)c2ccccc2OC)c2ccccc2S1(=O)=O -30.6%
CC(=O)c1cc2c(cc1N/C(=N/S(=O)(=O)c1ccc(C)cc1)c1ccc(F)cc1)OCO2 -21.7%
O=S1(=O)c2ccccc2N(Cc2cccc(Cl)c2)c2ccccc21 -24.2%
COc1cccc(CNC(=O)C2CCN(c3nnc(-n4c(C)ccc4C)s3)CC2)c1OC -21.9%
CCOc1ccc(-c2nc(CSCC(=O)NCc3ccc(Cl)cc3)c(C)o2)cc1 -2.17%
CCN(CC)CCNC(=O)c1ccc2c(=O)n3nc(Nc4ccccc4OC)sc3nc2c1 49.4%
Cc1c(C(=O)N2CCN(c3ccccc3)CC2)sc2nc3n(c(=O)c12)CCC3 -5.39%
CC(C)CCNC(=O)CN1C(=O)CSc2ccc(S(=O)(=O)N3CCCCC3)cc21 -16.2%
COc1ccc(CCNC(=O)c2ccc3c(c2)ncn3-c2ccc(C)cc2C)cc1OC -1.27%
CCc1ccc(S(=O)(=O)c2nnn3c2nc(NC(C)C)c2sccc23)cc1 -11.1%
CCOC(=O)c1c(-c2ccc(C)cc2)csc1NC(=O)c1nc(SC(C)C)ncc1Cl 1.6%
CCc1ccccc1NC(=O)C1CCCN(C(=O)c2cnn(-c3ccccc3)c2-n2cccc2)C1 (stereo not given) 35.1%
Cc1ccc(NC(=O)c2ccc(-n3c(C)nnc3C)cc2)cc1F -1.09%
COc1ccc(S(=O)(=O)N2CCN(Cc3nc4ccc(C)cc4o3)CC2)cc1Cl -12.1%
CCC(C(=O)NCCc1ccccc1)n1nc(C)n2c(cc3sccc32)c1=O (stereo not given) -8.9%
CCCc1nc(SCc2cc(=O)c3ccc(C)c(C)c3[nH]2)n[nH]1 -1.94%
CCc1cc2c(cc3c(=O)n(CC(=O)NC4CCC(C)CC4)ncn32)s1 (stereo not given) -8.79%
Cc1ccc(-c2cc(C(F)(F)F)n3nc(C(=O)NCC45CC6CC(CC(C6)C4)C5)cc3n2)cc1 -9.03%
CCOc1ccc(N2CC(NC(=O)c3ccc(S(=O)(=O)N4CCCCC4)cc3)CC2=O)cc1 (stereo not given) 11.6%
CCOc1ccccc1NC(=O)c1c(NC(=O)c2cccc(C)c2)sc2c1CCC2 -16.6%
COc1cc(OC)c(NS(=O)(=O)c2ccc3c(c2)CCCN3C(C)=O)cc1Cl 33%
COc1cc2nc(NCc3ccc(C)cc3)n3nc(-c4ccccc4)nc3c2cc1OC -2.79%
Cc1ccc(NC(=O)CSc2nc3ccccc3nc2N2CCOCC2)cc1 -14.1%
CCOc1ccccc1NC(=O)Cn1c(=O)ccc2cc(S(=O)(=O)N3CCCC3)ccc21 0.541%
CC(=O)N1CCc2nc3sc(C(=O)Nc4ccc(Cl)cc4F)c(N)c3c(C(F)(F)F)c2C1 -2.66%
CC(Oc1ccccc1)C(=O)Nc1nnc2n1CCS2 (stereo not given) -22.7%
COc1cc(-c2nc3nc(C)cc(C)n3c2Nc2ccc(Cl)cc2)ccc1O -26.3%
O=C(c1cc2ccc3cccnc3c2[nH]1)N1CCN(c2ccccc2)CC1 -21%
COC(=O)c1cccc(-n2c(CCC(=O)O)ccc2-c2cccs2)c1 -6.34%
CCOC(=O)c1ccc2ncc3c(-c4ccccc4)nn(-c4ccc(F)c(Cl)c4)c3c2c1 -0.211%
CC(C)c1nc2ccc(C(=O)NC(C)c3ccccc3)cc2o1 (stereo not given) 21.4%
O=C(NC1CCCC1)c1ccc(CSc2nc3cccnc3n2Cc2ccc(F)cc2)cc1 -3.89%
CCc1ccccc1N1CC(c2nc3ccccc3n2CCCCOc2ccccc2)CC1=O (stereo not given) 28.6%
COc1cccc(/C=C/C(=O)Nc2ccc3nc(N4CCN(C)CC4)cc(C)c3c2)c1OC -11.5%
CCCn1c2ccccc2c2cnn(CC(=O)N(CCCOC)Cc3ccco3)c(=O)c21 46.7%
Oc1ccccc1-c1nc(/C=C/c2ccc(F)cc2)nn1-c1ccccc1 -29.6%
